Measured values published in PubChem BioAssay (Tox21).
“And” between values parts separate entries of the source, which are not always exact repeats. Equal entries are not always repeated. This list was built around the results that the source calls inconclusive (neither active nor inactive); the mix of calls is not that of the screen. For part of these data: Potencies beside an inconclusive call are fits to weak or partial responses and may not hold up. The source made the active and inactive calls. Unless noted, calls follow the shape of the dose curve; as a rule, active = well fitted cell-killing curve with a large enough effect in the repeat runs; inconclusive = weak or mixed curves, or effect the other way; inactive = no such curve, though single readings can be large or run the other way.

target: Bile acid receptor (Homo sapiens) (UniProt Q96RI1); assay: qHTS assay to identify small molecule antagonists of the farnesoid-X-receptor (FXR) signaling pathway (AID 743217; active = well fitted inhibition curve with a large enough effect in the signal ratio in the repeat runs, not every such curve was filed as active; inconclusive = weak or mixed curves, or effect the other way; inactive = no such curve, though single readings can be large or run the other way; the % refers to the signal ratio); conditions: HEK293T FXR-UAS-bla, beta-lactamase ratio, CDCA-stimulated, 16 h; activity change, negative = inhibition: at 62.6 µM (top of the series) unless noted
Outline: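 FRET fluorescence after 2 h room-temperature LiveBLAzer loading gives the readout. Prior step: FXR-bla HEK 293T cells, seeded and incubated 5 h, received test compounds plus 50 uM final CDCA for 16 h at 37 °C.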
% is scaled to controls: 0 for no effect and ±100 for the full control effect; tags tell the direction and shape of the fitted curve or compound fluorescence and quenching.

Chain of UniProt Q96RI1 (Q96RI1 whole entry, looked up): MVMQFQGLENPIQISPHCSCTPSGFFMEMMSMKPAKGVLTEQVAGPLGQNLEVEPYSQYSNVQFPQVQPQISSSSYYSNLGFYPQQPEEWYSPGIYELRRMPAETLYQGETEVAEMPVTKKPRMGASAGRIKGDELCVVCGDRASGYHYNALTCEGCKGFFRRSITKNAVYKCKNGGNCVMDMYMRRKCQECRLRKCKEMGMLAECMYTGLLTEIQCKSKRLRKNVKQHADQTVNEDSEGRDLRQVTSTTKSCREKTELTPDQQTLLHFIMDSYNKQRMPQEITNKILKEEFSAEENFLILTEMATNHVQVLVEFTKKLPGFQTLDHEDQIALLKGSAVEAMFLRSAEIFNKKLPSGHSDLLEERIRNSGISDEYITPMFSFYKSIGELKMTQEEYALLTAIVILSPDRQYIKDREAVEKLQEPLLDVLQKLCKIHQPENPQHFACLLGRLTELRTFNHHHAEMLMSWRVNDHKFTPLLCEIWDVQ

| Compound | Potency | activity change, negative = inhibition |
| --- | --- | --- |
| CCN(CC)N=O | inactive |  |
| O=C(O)c1cc(Cl)ccc1Cl | inactive |  |
| CCCSP(=O)(OCC)SCCC |  | inconclusive: -14.2% [at 81.1 µM] |
| CCCCN(CCCC)N=O |  | inconclusive: -5.27% |
| CCOC(=O)c1ccccc1N |  | inconclusive: 12.5% |
| NC(=S)Nc1ccccc1 | inactive |  |
| CCOC(=O)NC(C)(C)Cc1ccc(Cl)cc1 | inactive |  |
| N#CC(Br)Br | inactive |  |

test system: not listed separately; assay: qHTS assay to identify small molecule agonists of the farnesoid-X-receptor (FXR) signaling pathway - cell viability counter screen (AID 743218); conditions: FXR-bla HEK293T viability, CellTiter-Glo luminescence, 16 h; viability change, negative = cytotoxic: at 62.6 µM (top of the series) unless noted; also: nearly all actives have a fitted effect of over 45% in size; also: potency is read from the fitted curve at half-maximal effect
Outline: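 Readout: CellTiter-Glo luminescence, 30 min RT, multiplexed after the FXR-bla FRET reading. HEK 293T FXR-UAS-bla cells received compound 5 h post-plating and were incubated 16 h at 37 C.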

| Compound | Potency |
| --- | --- |
| OCC(O)CO | inconclusive: 5.55 µM [rising, partial curve, poor fit] |
| CCCSP(=O)(OCC)SCCC | inconclusive: 1.13 µM [rising, full curve, poor fit] |
| CCCCN(CCCC)N=O | inconclusive: 24.5 µM [rising, partial curve] |
| c1ccc(-c2cccc(-c3ccccc3)c2)cc1 | inconclusive: 34.7 µM [rising, partial curve, poor fit] |
| NC(=S)Nc1ccccc1 | inactive |
| CCCCCCCCCCCCCl | inconclusive: 54.9 µM [rising, single point] |
| CCOC(=O)NC(C)(C)Cc1ccc(Cl)cc1 | inactive |
| N#CC(Br)Br | inconclusive: 0.0031 µM [rising, full curve, poor fit] |

target: Bile acid receptor (Homo sapiens) (UniProt Q96RI1); assay: qHTS assay to identify small molecule agonists of the farnesoid-X-receptor (FXR) signaling pathway (AID 743220; active = well fitted activation curve with a large enough effect in the signal ratio in the repeat runs, not every such curve was filed as active; inconclusive = weak or mixed curves, or effect the other way; the % refers to the signal ratio; also: potency is read from the fitted curve at half-maximal effect); conditions: HEK293T FXR-UAS-bla, beta-lactamase FRET ratio, 16 h; activation: at 62.6 µM (top of the series) unless noted
Outline: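 FXR-UAS-bla HEK 293T cells carrying a UAS-driven beta-lactamase reporter were plated for 5 h at 37C/5% CO2, then exposed to DMSO-dissolved Tox21 10K compounds for 16 h at 37C. A LiveBLAzer B/G FRET substrate was loaded for 2 h at room temperature before fluorescence reading.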

| Compound | Potency |
| --- | --- |
| Oc1ccc2[nH]cc(CCCCN3CC=C(c4ccccc4)CC3)c2c1 | inconclusive: 18.8 µM [fluorescent, partial curve, poor fit] |
| NC(=S)Nc1ccccc1 | inactive |
| CCS(=O)(=O)C(C)(C)S(=O)(=O)CC | inactive |
| O=NN1CCCCCC1 | inactive |
| N#CC(Br)Br | inactive |

test system: not listed separately; assay: qHTS assay to identify small molecule antagonists of the farnesoid-X-receptor (FXR) signaling pathway - cell viability counter screen (AID 743221; active = well fitted cell-killing curve with a large enough effect in the repeat runs, not every such curve was filed as active; inconclusive = weak or mixed curves, or effect the other way; inactive = no such curve, though single readings can be large or run the other way; also: nearly all actives have a fitted effect of over 50% in size; also: potency is read from the fitted curve at half-maximal effect); conditions: FXR-bla HEK293T viability, CellTiter-Glo luminescence, 16 h; activity change, negative = cytotoxicity: at 62.6 µM (top of the series) unless noted
Outline: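 FXR-UAS-bla HEK 293T cells were treated with test compounds plus chenodeoxycholic acid (50 uM final) for 16 h at 37 C. Cell viability in the same wells was then read as CellTiter-Glo luminescence after 30 min at room temperature.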

| Compound | Potency |
| --- | --- |
| CNC(C)Cc1ccccc1OC (stereo not drawn) | inactive |
| CCCSP(=O)(OCC)SCCC | inconclusive: 0.0716 µM [falling, full curve, poor fit] |
| CC1Sc2c(C(=O)O)c(=O)c3cc(F)c(N4CCNCC4)cc3n21 (stereo not drawn) | inactive |

target: Vitamin D3 receptor (Homo sapiens) (UniProt P11473); assay: qHTS assay to identify small molecule antagonists of the vitamin D receptor (VDR) signaling pathway (AID 743223; active = well fitted inhibition curve with a large enough effect in the signal ratio in the repeat runs, not every such curve was filed as active; inconclusive = weak or mixed curves, or effect the other way; inactive = no such curve, though single readings can be large or run the other way; the % refers to the signal ratio; also: potency is read from the fitted curve at half-maximal effect); conditions: VDR-UAS-bla HEK293T, beta-lactamase FRET ratio, 16 h; activity change, negative = inhibition: at 61 µM (top of the series) unless noted
Outline: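 VDR-bla cells were plated, incubated 4 h at 37C, then given compound and 1alpha,25-dihydroxyvitamin D3 (3 nM final). After 16 h at 37C, LiveBLAzer B/G FRET substrate was added for 2 h at room temperature and fluorescence read.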

Chain of UniProt P11473 (P11473 whole entry, looked up): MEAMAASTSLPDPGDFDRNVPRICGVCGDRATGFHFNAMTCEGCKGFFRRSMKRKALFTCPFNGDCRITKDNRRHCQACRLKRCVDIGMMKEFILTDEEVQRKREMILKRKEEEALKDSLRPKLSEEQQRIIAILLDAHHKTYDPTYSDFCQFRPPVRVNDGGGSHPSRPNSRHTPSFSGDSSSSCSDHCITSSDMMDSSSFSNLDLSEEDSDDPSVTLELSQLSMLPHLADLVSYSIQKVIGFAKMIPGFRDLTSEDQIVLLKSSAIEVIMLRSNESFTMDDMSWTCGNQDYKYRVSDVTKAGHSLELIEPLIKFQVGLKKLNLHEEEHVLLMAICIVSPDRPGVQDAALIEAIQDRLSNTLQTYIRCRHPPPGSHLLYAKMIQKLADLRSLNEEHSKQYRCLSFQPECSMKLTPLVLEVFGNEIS

| Compound | Potency | activity change, negative = inhibition |
| --- | --- | --- |
| COc1ccc(OC)c(CC(C)N)c1 (stereo not drawn) | inactive |  |
| OCC(O)CO |  | inconclusive: 5.06% [at 78.8 µM] |
| CCCSP(=O)(OCC)SCCC |  | inconclusive: 1.97% [at 78.8 µM] |
| CC1Sc2c(C(=O)O)c(=O)c3cc(F)c(N4CCNCC4)cc3n21 (stereo not drawn) |  | inconclusive: 18.1% |
| Nc1nc(N)c(N)c(N)n1 | inactive |  |
| O=Cc1ccc2c(c1)OCO2 | inactive |  |
| c1ccc(N=Nc2ccccc2)cc1 |  | inconclusive: 25% |
| O=c1[nH]c2ccccc2o1 |  | inconclusive: 16.1% |
| CCOC(=O)c1ccccc1N | inactive |  |
| ClCc1ccccc1 | inactive |  |
| NP(N)(=O)NC(=O)c1ccc(F)cc1 | inconclusive: 26.8 µM [inhibitor, single point] |  |
| CN(C)CCC#N |  | inconclusive: 5.65% |

test system: not listed separately; assay: qHTS assay to identify small molecule agonists of the vitamin D receptor (VDR) signaling pathway - cell viability counter screen (AID 743224); conditions: VDR-bla HEK293T viability, CellTiter-Glo luminescence, 16 h; series mostly up to 62.6 µM; also: nearly all actives have a fitted effect of over 50% in size; also: potency is read from the fitted curve at half-maximal effect
Outline: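 In parallel with the bla FRET readout, cytotoxicity toward VDR-bla cells after 16 h compound exposure was assessed by CellTiter-Glo, with luminescence recorded after a 30 min room-temperature incubation.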

| Compound | Potency |
| --- | --- |
| CCN(CC)N=O | inactive |
| CNC(C)Cc1ccccc1OC (stereo not drawn) | inactive |
| CCCCCCCCC(=O)NCc1ccc(O)c(OC)c1 | inactive |
| CC(=O)CCc1ccc2c(c1)OCO2 | inconclusive: 15.5 µM [cytotoxic, partial curve] |
| c1ccc(N=Nc2ccccc2)cc1 | inactive |
| O=[N+]([O-])O.O=[N+]([O-])O.[Cd] | active: 1.74 µM |
| NC(=S)Nc1ccccc1 | inconclusive: 17.4 µM [cytotoxic, partial curve, poor fit] |
| ClCc1ccccc1 | inactive |
| CN(C)CCC#N | inactive |

test system: not listed separately; assay: qHTS assay to identify small molecule antagonists of the vitamin D receptor (VDR) signaling pathway - cell viability counter screen (AID 743225); conditions: VDR-bla HEK293T viability, CellTiter-Glo luminescence, 16 h; viability change, negative = cytotoxic: at 61 µM (top of the series) unless noted; also: nearly all actives have a fitted effect of over 50% in size; also: potency is read from the fitted curve at half-maximal effect
Outline: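 VDR-bla HEK 293T cells, 4 h pre-incubation at 37C, then compound plus 1-alpha,25-dihydroxyvitamin D3 (3 nM final) for 16 h. After the beta-lactamase FRET read, CellTiter-Glo was added to the same wells; luminescence after 30 min at room temperature.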

| Compound | Potency | viability change, negative = cytotoxic |
| --- | --- | --- |
| O=C(O)c1cc(Cl)ccc1Cl | inconclusive: 61.3 µM [rising, partial curve, poor fit] |  |
| CCCSP(=O)(OCC)SCCC | inconclusive: 5.07 µM [cytotoxic, full curve, poor fit] |  |
| O=Cc1ccc2c(c1)OCO2 | inactive |  |
| O=[N+]([O-])O.O=[N+]([O-])O.[Cd] | active: 19.5 µM |  |
| O=C(NCc1cccnc1)Nc1ccc([N+](=O)[O-])cc1 | inconclusive: 49 µM [cytotoxic, partial curve, poor fit] |  |
| CCCCCCCCCCCCCl | inconclusive: 5.49 µM [cytotoxic, single point] |  |
| COc1ccc(C=O)cc1 |  | inconclusive: 14.8% [cytotoxic] |
| ClCc1ccccc1 | inactive |  |
| CC1(C)[C@H](C=C(Cl)Cl)[C@@H]1C(=O)O[C@@H](C#N)c1cccc(Oc2ccccc2)c1 | inconclusive: 12.3 µM [cytotoxic, single point] |  |

test system: not listed separately; assay: qHTS assay to identify small molecule agonists of the endoplasmic reticulum stress response signaling pathway (AID 1159516; active = well fitted activation curve with a large enough effect in the signal ratio in the repeat runs, not every such curve was filed as active; inconclusive = weak or mixed curves, or effect the other way; the % refers to the signal ratio; also: potency is read from the fitted curve at half-maximal effect); conditions: ESRE-bla HeLa, ER stress beta-lactamase reporter, 5 h; activation: at 61 µM (top of the series) unless noted
Outline: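 Beta-lactamase expression from the ER stress response element in HeLa reporter cells is quantified with the LiveBLAzer B/G FRET substrate, read at 405 nm excitation after 2 hr at room temperature, following 5 hr compound treatment at 37 C.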

| Compound | Potency | activation |
| --- | --- | --- |
| CCN(CC)N=O | inconclusive: 61.6 µM [falling, single point] |  |
| CNC(C)Cc1ccccc1OC (stereo not drawn) | inconclusive: 4.77 µM [rising, full curve] |  |
| COc1ccc(OC)c(CC(C)N)c1 (stereo not drawn) | inconclusive: 1.18 µM [rising, full curve, poor fit] |  |
| Oc1ccc2[nH]cc(CCCCN3CC=C(c4ccccc4)CC3)c2c1 | active: 4.25 µM |  |
| OCC(O)CO | inconclusive: 55.5 µM [activator] |  |
| O=C(O)c1cc(Cl)ccc1Cl | inactive |  |
| CCOC(=O)Nc1cccc(OC(=O)Nc2ccccc2)c1 | inactive |  |
| CN1C(=O)NC(=O)C(C)(C2=CCCCC2)C1=O (stereo not drawn) | inconclusive: 0.535 µM [falling, single point] |  |
| CCCCCCCCCCCCCCCCCC(=O)O | inactive |  |
| CCCSP(=O)(OCC)SCCC | inconclusive: 22.7 µM [activator, single point] |  |
| CCCCCCCCC(=O)NCc1ccc(O)c(OC)c1 |  | inconclusive: -0.482% and inconclusive: -0.263% |
| CC1Sc2c(C(=O)O)c(=O)c3cc(F)c(N4CCNCC4)cc3n21 (stereo not drawn) | inconclusive: 0.952 µM [falling, single point] |  |
| Nc1nc(N)c(N)c(N)n1 | inconclusive: 39.1 µM [activator] |  |
| CC(=O)CCc1ccc2c(c1)OCO2 | inactive |  |
| O=Cc1ccc2c(c1)OCO2 | inconclusive: 0.0017 µM [rising, full curve, poor fit] |  |
| CCCCN(CCCC)N=O | inconclusive: 21.9 µM [falling, partial curve, poor fit] |  |
| c1ccc(-c2cccc(-c3ccccc3)c2)cc1 |  | inconclusive: 8.13% [at 78.8 µM] |
| c1ccc(N=Nc2ccccc2)cc1 | inconclusive: 62.8 µM [activator, single point] |  |
| O=[N+]([O-])O.O=[N+]([O-])O.[Cd] | inconclusive: 0.195 µM [falling, full curve] |  |
| O=c1[nH]c2ccccc2o1 | inactive |  |

| Compound | Potency | activation |
| --- | --- | --- |
| CCOC(=O)c1ccccc1N |  | inconclusive: 3.25% |
| O=C(NCc1cccnc1)Nc1ccc([N+](=O)[O-])cc1 | inconclusive: 61.6 µM [rising, partial curve, poor fit] |  |
| NC(=S)Nc1ccccc1 | inconclusive: 62.7 µM [activator, single point] |  |
| CCCN(CCC)c1c([N+](=O)[O-])cc(C(C)C)cc1[N+](=O)[O-] |  | inconclusive: -4.46% and inconclusive: 0.154% |
| CCS(=O)(=O)C(C)(C)S(=O)(=O)CC | inactive |  |
| O=NN1CCCCCC1 |  | inconclusive: -0.458% |
| CCCCCCCCCCCCCl |  | inconclusive: -0.836% |
| CCC(Cl)CCl (stereo not drawn) | inconclusive: 0.0197 µM [falling, full curve] |  |
| COc1ccc(C=O)cc1 | inconclusive: 60.8 µM [activator, single point] and inactive |  |
| CCOC(=O)NC(C)(C)Cc1ccc(Cl)cc1 | inactive |  |
| ClCc1ccccc1 | inactive |  |
| O=[N+]([O-])c1ccc(Cl)c(Cl)c1 | inactive |  |
| O=C1CC(=O)NC(=O)N1 | inactive |  |
| NP(N)(=O)NC(=O)c1ccc(F)cc1 | inactive |  |
| O=Cc1ccco1 | inconclusive: 18.8 µM [falling, partial curve, poor fit] |  |
| CC1(C)[C@H](C=C(Cl)Cl)[C@@H]1C(=O)O[C@@H](C#N)c1cccc(Oc2ccccc2)c1 | inconclusive: 49 µM [partial curve, poor fit] |  |
| N#CC(Br)Br | inconclusive: 48.7 µM [rising, partial curve] |  |
| CC(C)C#N | inactive and inconclusive: 24.5 µM [activator, single point] |  |
| CN(C)CCC#N | inactive |  |
